Out of some 150,000 compounds screened, about 540 (0.36%) showed an effect of 50% or more. Some of the results follow.
system: Plasmodium falciparum; test: Primary screen in NF54 nanoGlo assay, in single point, at 2uM, 72h; a lower Z score goes with more inhibition; assay type: functional, Erythrocyte; conditions: timepoint 72 hour

Row | Structure (SMILES) | % Inhibition | Z score
1 | CC(C)(CNC(=O)C1(O)CCOCC1)c1c(Cl)cccc1Cl | -5% | 0.44
2 | CCN(CC)S(=O)(=O)N(C)Cc1ccc(OC)cc1OC | -13% | 1.76
3 | COc1ccc(C)cc1CNc1ccccc1N1CCCCC1 | -7% | 0.74
4 | CCC1(CC)CN([C@H]2CCC(=O)N(CC3CC3)CC2)CCO1 | 0% | -0.04
5 | O=C(N[C@H]1CCN(Cc2ccsc2)C1)c1cc2ccccc2[nH]1 | -4% | 0.62
6 | O=C(NCC1(O)CCOCC1)c1cnn(-c2ccc(F)cc2F)c1 | -9% | 1.2
7 | O=S1(=O)CCC[C@H](c2nc(-c3nccc4ccccc34)no2)C1 | -6% | 1.07
8 | COc1ccc(NC(C)=O)cc1NC(=O)c1cccc2ccsc12 | -11% | 1
9 | Cc1ccccc1-n1c(=O)n(C[C@H]2CCCO2)c(=O)c2c1ncn2Cc1cccc(F)c1 | -13% | 1.27
10 | O=C(Nc1ccc2c(n1)CCC2)N1CC(O)CC1c1ccccc1 (stereo not given) | -1% | 0.17
11 | CCc1ccc(S(=O)(=O)N2C[C@H](C)NC(=O)c3ccc(F)cc32)cc1 | -5% | 0.65
12 | CCOc1cc(-c2nnc(NC(=O)c3ccc4c(c3)OCCO4)o2)cc(OCC)c1OCC | 4% | -0.57
13 | COc1cc(OC)c(OC)cc1CN1CCC2(CC1)C[C@@H]2C(=O)N1CCCN(C)CC1 | -9% | 1.23
14 | CC[C@H]1CN(C)CCCN1C(=O)c1cccc(C(=O)O)c1 | -8% | 1.04
15 | CCN(C)c1nc(-c2ccc(F)cc2)ncc1C(=O)N1CCCCC1 | 1% | -0.11
16 | CCc1nc(NC[C@H]2CN(CC3CCN(CC4CC4)CC3)C(=O)CO2)ncc1C | -9% | 1.72
17 | Cc1cc(C)n(CCC(=O)N2C[C@@H]3CC[C@H]2CN(Cc2[nH]cnc2C)C3)n1 | 2% | -0.37
18 | Cc1ccc(CN2CCN(Cc3ccon3)C[C@@H]2CCO)o1 | -4% | 0.71
19 | CN(c1ccccc1)c1ccccc1C(=O)NCCCN1CCOCC1 | -3% | 0.28
20 | CCC[C@H](NC1CCN(C(=O)OC)CC1)C1CC1 | 7% | -0.96
21 | C[C@@H]1C(=O)N(c2nn(C)c3ccccc23)C(=O)N1C | 0% | -0.04
22 | O=C(c1ccc2ccccc2n1)N1CC[C@H](c2nc(CCOCC3CC3)no2)C1 | -14% | 1.89

Row | Structure (SMILES) | % Inhibition | Z score
23 | CCc1nc(C)cc(N2CCC3(CCOCC3)C2)n1 | 0% | -0.05
24 | Cc1cc(Br)cc(C(=O)NCCc2ccn(C)n2)c1 | -11% | 1.74
25 | N#Cc1cnc(N2CCC(CNC(=O)c3ccn(C(F)F)n3)CC2)nc1N | -10% | 2.08
26 | COCCN1CCC[C@@]2(CCN(C(=O)c3ccccc3)C2)C1 | -9% | 1.37
27 | Cc1ccc(N2C(=O)N(Cc3ccc(F)cc3)S(=O)(=O)c3cccnc32)cc1 | -13% | 1.3
28 | CN1C(=O)CC[C@]2(CNC(=O)Cc3ccccc3)CCC=C12 | -12% | 1.72
29 | COC(=O)c1cn(Nc2nc(C)cc(C)n2)cc2c(O)nnc1-2 | 6% | -0.76
30 | C[C@H]1CCCN(c2ccc(C(N)=O)cc2NC(=O)CCn2cnnn2)C1 | -3% | 0.34
31 | CCO[C@@H](C)c1nc(-c2cc(C)cc(C)n2)no1 | 0% | 0.01
32 | CCc1nnc(Cn2cc(C(C)=O)c(=O)n(C)c2=O)n1C | -2% | 0.26
33 | CC(=O)N1CCN(C2CN(Cc3nc(C)no3)CC2C)CC1 (stereo not given) | -17% | 2.24
34 | Cc1ccc(NC[C@H]2CCN(Cc3ncc(C(C)(C)C)o3)C2)nc1 | -8% | 1.11
35 | CC(C)c1cc(CN2CC[C@](C)(O)[C@@H](O)C2)on1 | -4% | 0.84
36 | COc1ccc(C(=O)C[n+]2cc(-c3cccc(Br)c3)n(C)c2N)cc1 | 3% | -0.43
37 | C[C@@H](NC(=O)NCC1CCN(c2cnn(C)c(=O)c2)CC1)c1ccc(F)cc1 | 1% | -0.12
38 | CCCS(=O)(=O)N(C)CCn1ccnc1 | -11% | 2.12
39 | Cc1cc(C(=O)N2CCC[C@H](N(CCN3CCOCC3)S(C)(=O)=O)C2)ccn1 | -12% | 1.59
40 | O=C(CC1CCOCC1)NCc1ccccn1 | 39% | -5.66
41 | CN1CCC(N(C)C(=O)C23CCC(C)(C(=O)C2=O)C3(C)C)CC1 (stereo not given) | 12% | -1.45
42 | CCCCc1nc(CN2CCC[C@H](OC)C2)c[nH]1 | -13% | 1.84
43 | O=C(CC1CCN(Cn2cnc3ccccc32)CC1)N1CCCC1 | -42% | 4.98
44 | Cn1cc([C@@H]2CS(=O)(=O)CCCN2Cc2ccccc2F)cn1 | 8% | -0.91

Row | Structure (SMILES) | % Inhibition | Z score
45 | CCn1cc(CN2CCC(C(=O)NCc3ccc(N(C)C)cc3)CC2)c2cc(OC)ccc21 | 7% | -0.91
46 | CC1(C)C[C@@H](NC(=O)c2ccc(OCc3ccccc3)nc2)CCO1 | -7% | 0.96
47 | c1cnn2c(-c3ccc4c(c3)OCCO4)cnc2c1 | 5% | -0.48
48 | Cc1cc(C(=O)N[C@H]2CCN(Cc3ccnc4ccccc34)C[C@@H]2O)no1 | -2% | 0.34
49 | CCc1nnc(N2CC[C@@]3(CCCN(C4CCCCC4)C3=O)C2)s1 | -20% | 2.13
50 | CCc1n[nH]c(C(=O)NC(C)(C)c2nccs2)c1Br | -15% | 1.58
51 | Cc1cnc(C)c(N2CCC(Oc3ccc(C#N)cc3)CC2)n1 | 4% | -0.41
52 | COc1ccc2c(c1)C[C@@H](N1CCC(CCC(=O)N3CCOCC3)CC1)CC2 | -13% | 1.72
53 | C[C@H]1CCCN(C(=O)c2cn(-c3cc(-c4nc(C(C)(C)C)no4)ccn3)cn2)C1 | -15% | 2.42
54 | CN(CC1(C)COC1)c1ccnc(C(=O)NCCO)c1 | 3% | -0.36
55 | CN1CCN(c2nc3c(c(N(C)C)n2)CN(S(=O)(=O)c2ccccc2)CC3)CC1 | -2% | 0.15
56 | COc1ccc(CC[C@H](C)N2CCn3nc(C(=O)O)cc3C2)cc1 | -10% | 1.82
57 | COc1ccc(N/N=C(/C(C)=O)N2CCCc3ccccc32)cc1 | 29% | -3.32
58 | O=C(Nc1nnc(C2CC2)s1)c1ccc2c(c1)OCO2 | -5% | 0.7
59 | O=C(NC[C@H]1CCC[C@@H](CO)C1)c1c[nH]c(C(F)(F)F)c1 | -3% | 0.5
60 | COc1ccc(-c2noc(-c3ncn4c3CO[C@H](c3ccc(F)cc3)C4)n2)cc1OC | -10% | 0.88
61 | CC(=O)N1CCCC[C@H]1c1noc(COc2ccc(C)cc2)n1 | 20% | -2.69
62 | O=C(Cn1cncn1)N1C[C@H]2CC=CC[C@H]2C1 | -8% | 1.57
63 | Cc1ccc(NC(=O)N2CCCCCCNC(=O)[C@@H]3CCCC[C@@H]32)cc1C | 0% | 0
64 | O=C(CCc1ccccn1)N[C@@H]1COCC[C@@H]1Oc1ccc(F)cc1 | 7% | -0.78
65 | O=C(N[C@@H]1CN(c2ncccn2)C[C@H]1CO)c1cccc2[nH]ccc12 | -9% | 1.24
66 | O=C(Nc1ccc(-c2ccccc2)cn1)[C@H]1CCOC1 | -4% | 0.68

Row | Structure (SMILES) | % Inhibition | Z score
67 | O=C(Nc1ccc(Cl)cn1)c1ccccn1 | 1% | -0.08
68 | COCc1ncc(C)n1CC1CCN(C(=O)CCc2ccc(OC)cc2)CC1 | 0% | -0.03
69 | C[C@@H](C1CC1)N(C1CC1)S(=O)(=O)c1ccc(F)cc1F | 84% | -10.78
70 | O=C(NCCC(c1ccccc1)c1ccccc1)c1cc(-c2ccccc2Cl)nn1-c1ccc(Cl)c(Cl)c1 | -1% | 0.11
71 | COc1ccc(-c2ncc(C(=O)NC[C@H]3CCCO3)c(Oc3ccc(Cl)cc3)n2)cc1 | -3% | 0.47
72 | CCOC(=O)[C@H]1CCCN(Cc2nnsc2Cl)C1 | -13% | 1.14
73 | O=C(NC1CCCCCC1)c1n[nH]c2c1COc1ccccc1-2 | -4% | 0.71
74 | Cc1ccccc1CN1CCCN(C(=O)c2n[nH]c3ccccc23)CC1 | -11% | 1.38
75 | CCNC(=O)c1nnn(-c2ccc(OCC)cc2)c1-c1cccnc1 | -10% | 0.91
76 | Cc1oncc1CN1CCC[C@H]1C(F)(F)F | 5% | -0.71
77 | CCCS(=O)(=O)CC(=O)N1CCCC(C)C1CN (stereo not given) | 6% | -0.74
78 | CC1(C)CCCN1C(=O)NCCCC(F)(F)F | -15% | 1.48
79 | CCc1ncnc(O[C@H]2CCN(C(=O)NCCc3ccc(OC)cc3)C2)c1F | 0% | -0.03
80 | CC1CN(Cc2ncc(C(C)(C)C)s2)CC[S+]([O-])C1 (stereo not given) | -8% | 1.21
81 | Cc1oc(-c2ccccc2NS(C)(=O)=O)nc1CN(C)Cc1ccc(N2CCCC2)cc1 | 1% | -0.14
82 | COC(=O)NCCNC(=O)c1ncccc1NCC1CCC1 | -30% | 3.53
83 | CC(NC(=O)N1CCC(n2cc(Cl)cn2)C1)C1CCCN(C2CCC2)C1 (stereo not given) | -1% | 0.18
84 | COc1ccc(-c2nc(C)nc3onc(C)c23)cn1 | -11% | 1.46
85 | CC1Cc2cc(-c3ccc(CNC(=O)C(C)(O)C4CC4)cc3)ccc2O1 (stereo not given) | 35% | -0.59

From ChEMBL document CHEMBL4888484, “Replenishing the malaria drug discovery pipeline: Screening and hit evaluation of the MMV Hit Generation Library 1 (HGL1) against asexual blood stage Plasmodium falciparum ,using a nano luciferase reporter read-out” (2022)
